The other results are listed elsewhere or left out. Sequences were assembled here from the parent chain. Values near 0.05 are background.
B1: TEV protease; numbered along this chain (parent)
chain: MGESLFKGPRDYNPISSSICHLTNESDGHTTSLYGIGFGPFIITNKHLFRRNNGTLVVQSLHGVFKVKDTTTLQQHLVDGRDMIIIRMPKDFPPFPQKLKFREPQREERICLVTTNFQTKSMSSMVSDTSCTFPSGDGIFWKHWIQTKDGQCGSPLVSTRDGFIVGIHSASNFTNTNNYFTSVPKNFMELLTNQEAQQWVSGWRLNADSVLWGGHKVFMVKPEEPFQPVKEATQL

Variants of: B1
Assay: raw area under fraction-flipped curve 0-4 h after induction (AUC4h, not background-subtracted), DNA-recorder readout of cleavage of the substrate (dimensionless); higher = more cleavage of the substrate by the protease variant
Details: temperature: 34 °C; time window: 0-4 h after rhamnose induction
Protocol: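 In vivo DNA recorder in E. coli TOP10(DE3) ΔrhaA at 34 °C. Each TEVp single-site mutant (parent TEVp 0) is paired with a single-site variant of the 7-mer TEVs (canonical ENLYFQ|S). The substrate sits between flexible linkers in a Bxb1-sfGFP-TEVs-SsrA fusion, so cleavage stabilises Bxb1 and speeds flipping of a recombination array, read by NGS. The value is the raw area under the fraction-flipped curve over 0-4 h after rhamnose induction (AUC4h), with ≥20 reads per time point. It is not background-subtracted; inactive controls average about 0.047.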
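Also: Bxb1 expression induced with 0.2% (w/v) L-rhamnose at OD600 near 0.5, cultures sampled hourly, flipped fraction per protease–substrate barcode pair counted by paired-end Illumina sequencing.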

Row | Variant | area with substrate ENLYAQS | area with substrate ENLYDQS | area with substrate ENLYEQS | area with substrate ENLYIQS | area with substrate ENLYKQS | area with substrate ENLYPQS | area with substrate ENLYQQS | area with substrate ENLYTQS | area with substrate ENLYVQS | area with substrate ENLYCQS | area with substrate ENLYHQS | area with substrate ENLYRQS | area with substrate ENLYYQS | area with substrate ENLYMQS | area with substrate ENLYNQS | area with substrate ENLYSQS | area with substrate ENLYWQS | area with substrate ENLYGQS | area with substrate ENLYLQS
1 | N178V | 0.0643 | 0.0447 | 0.0675 | 0.0918 | 0.0951 | 0.0656 | 0.0605 | 0.0729 | 0.089 | – | – | – | – | – | – | – | – | – | –
2 | Y179I | 0.0727 | 0.0621 | 0.0769 | 0.0669 | 0.0277 | 0.0518 | 0.0551 | – | – | 0.0631 | 0.0581 | 0.0749 | 0.069 | – | – | – | – | – | –
3 | Y179W | 0.074 | 0.0581 | 0.0548 | – | – | 0.0642 | – | – | 0.0648 | – | – | – | – | 0.0555 | 0.0393 | 0.062 | 0.0569 | – | –
4 | S182G | 0.0852 | 0.05 | – | – | 0.118 | 0.0823 | – | – | 0.109 | 0.0972 | – | – | – | – | – | – | – | 0.0692 | –
5 | S182T | 0.0786 | – | 0.0524 | – | – | – | – | – | – | – | – | – | – | – | 0.0813 | – | – | – | –
6 | V183S | 0.0581 | – | 0.0704 | – | 0.0875 | 0.0688 | – | – | 0.102 | – | 0.045 | – | – | 0.0641 | 0.0717 | 0.0639 | 0.0728 | 0.0689 | –
7 | P184T | 0.0659 | – | – | – | 0.0482 | 0.0766 | – | 0.0677 | – | – | 0.0716 | 0.0643 | 0.0664 | – | – | 0.0635 | 0.0584 | 0.0662 | –
8 | K185Q | 0.0744 | – | 0.0623 | – | 0.0601 | 0.0819 | 0.0774 | 0.0784 | – | 0.077 | 0.0587 | – | – | 0.0955 | 0.0741 | – | – | – | –
9 | N186K | 0.0707 | – | 0.0757 | 0.13 | 0.068 | 0.0667 | 0.0605 | – | 0.0709 | – | 0.0659 | – | – | 0.074 | – | – | 0.0761 | – | –
10 | N186Q | 0.0804 | 0.0639 | – | 0.119 | – | – | – | – | – | 0.0842 | 0.0063 | – | 0.0618 | – | – | – | 0.0543 | – | –
11 | M188D | 0.0694 | 0.0613 | – | 0.118 | 0.0502 | – | 0.0664 | 0.0714 | 0.0942 | – | 0.0688 | 0.0703 | 0.0768 | 0.103 | 0.0646 | 0.0777 | 0.0839 | 0.0651 | –
12 | E189P | 0.0484 | 0.0789 | 0.0443 | – | 0.0545 | 0.0828 | 0.0694 | – | 0.0975 | – | 0.0699 | – | – | 0.0796 | – | – | – | 0.0628 | –
13 | E189R | 0.0667 | 0.0606 | 0.0848 | 0.106 | 0.0598 | 0.0627 | 0.104 | 0.088 | 0.107 | 0.0717 | – | 0.0525 | 0.0627 | 0.0811 | 0.0671 | 0.0754 | – | 0.0689 | –
14 | L191V | 0.0603 | 0.0502 | 0.0658 | 0.118 | – | 0.0646 | 0.0604 | 0.0708 | 0.11 | – | 0.077 | 0.0611 | 0.0599 | 0.0811 | 0.0663 | – | 0.0731 | 0.0658 | –
15 | N193W | 0.0671 | 0.0609 | 0.0637 | 0.0912 | 0.0614 | – | – | – | 0.0962 | – | 0.04 | 0.0494 | – | – | – | – | – | – | –
16 | Q194M | 0.0727 | 0.0488 | 0.0809 | – | 0.0425 | – | – | – | – | 0.0802 | 0.0531 | 0.0652 | – | – | 0.0766 | 0.102 | – | 0.069 | 0.117

Row | Variant | area with substrate ENLYAQS | area with substrate ENLYDQS | area with substrate ENLYEQS | area with substrate ENLYIQS | area with substrate ENLYKQS | area with substrate ENLYPQS | area with substrate ENLYQQS | area with substrate ENLYTQS | area with substrate ENLYVQS | area with substrate ENLYCQS | area with substrate ENLYHQS | area with substrate ENLYRQS | area with substrate ENLYYQS | area with substrate ENLYMQS | area with substrate ENLYNQS | area with substrate ENLYSQS | area with substrate ENLYWQS | area with substrate ENLYGQS | area with substrate ENLYLQS
17 | Q194V | 0.0813 | – | 0.0735 | – | 0.0813 | – | – | – | – | – | 0.0701 | 0.0543 | – | – | 0.0757 | – | – | 0.0599 | –
18 | E195G | 0.073 | 0.0705 | 0.0652 | 0.116 | 0.0404 | – | 0.069 | – | 0.103 | – | – | 0.0659 | 0.0765 | 0.0711 | 0.0697 | 0.0875 | 0.0834 | – | 0.0903
19 | Q197E | 0.0531 | 0.0568 | – | 0.128 | 0.0682 | – | 0.0646 | 0.0687 | 0.093 | 0.0721 | – | – | – | 0.075 | 0.0657 | 0.0543 | 0.071 | 0.0766 | 0.0739
20 | W199I | 0.0692 | 0.0702 | – | – | – | – | – | – | – | 0.068 | – | – | 0.069 | 0.0635 | – | – | 0.0641 | 0.0562 | –
21 | W199M | 0.0639 | – | 0.0532 | 0.0624 | 0.0311 | 0.0634 | 0.0625 | 0.0641 | 0.0707 | 0.0747 | 0.0656 | 0.0652 | 0.0552 | 0.0606 | 0.0617 | – | – | 0.0495 | –
22 | W199V | 0.0466 | 0.072 | – | – | 0.0599 | 0.0589 | – | – | 0.0682 | 0.0581 | 0.0568 | 0.0596 | – | – | – | 0.0488 | 0.0621 | 0.0517 | –
23 | W203K | 0.0787 | 0.0658 | 0.0634 | – | 0.0662 | 0.0603 | – | 0.0609 | 0.0597 | 0.0637 | 0.061 | 0.0574 | 0.0654 | 0.0584 | – | 0.0581 | 0.0612 | 0.0533 | –
24 | R204A | 0.124 | 0.0718 | 0.0624 | 0.139 | 0.0703 | 0.0721 | 0.0378 | – | 0.116 | – | 0.0662 | 0.0593 | – | 0.1 | – | 0.0839 | 0.0804 | 0.0654 | –
25 | L205A | 0.0697 | 0.0533 | 0.0602 | – | 0.106 | 0.0405 | 0.0568 | – | – | – | 0.0684 | 0.0622 | – | 0.0606 | 0.0654 | 0.0798 | 0.0624 | 0.0603 | 0.0809
26 | N206I | 0.075 | 0.0732 | 0.0506 | – | – | – | – | – | – | – | 0.0651 | 0.0627 | 0.0539 | 0.0635 | 0.0496 | 0.0686 | 0.0778 | – | –
27 | N206K | 0.0765 | – | – | – | 0.0385 | – | – | 0.0613 | – | – | – | – | 0.0857 | 0.0708 | – | – | 0.066 | – | –
28 | A207D | 0.117 | 0.0646 | 0.067 | 0.125 | 0.0456 | 0.0736 | 0.0811 | – | 0.128 | – | 0.0677 | – | 0.0552 | 0.073 | 0.0585 | 0.0676 | 0.0771 | 0.0654 | 0.115
29 | A207L | 0.0591 | 0.0653 | 0.0545 | – | 0.0708 | – | – | – | 0.0679 | – | 0.0657 | 0.0402 | – | – | – | – | – | 0.0696 | 0.0862
30 | L211F | 0.0817 | 0.0617 | 0.069 | – | 0.0755 | – | – | – | 0.12 | – | 0.0583 | 0.0637 | – | – | 0.0589 | – | 0.0834 | – | –
31 | L211K | 0.0734 | – | 0.0759 | 0.124 | 0.0662 | – | – | 0.0672 | – | – | 0.0922 | – | 0.0439 | – | – | – | – | 0.081 | –
32 | L211S | 0.0908 | 0.0814 | – | 0.198 | 0.047 | – | 0.0478 | – | 0.156 | – | 0.0844 | – | – | 0.0999 | 0.0545 | – | – | 0.0587 | –

— the supplement of paper PMC12217912
